Measured values taken from PubChem BioAssay (NCATS).
This list was built around the results that the source calls inconclusive (neither active nor inactive); the mix of calls is not that of the screen. A potency beside an inconclusive call is a rough fit, not a confirmed value. Activity calls are given as the source filed them. Calls follow the shape of the dose curve; as a rule, active = well fitted inhibition curve with a large enough effect; inconclusive = small, poorly fitted or top-dose-only effect, or effect the other way; inactive = flat fitted curve, though single readings scatter.

Experiment: qHTS for Inhibitors of Plasmodium falciparum (GB4) proliferation (AID 504315); also: nearly all actives have a fitted effect of over 50% in size
Details: P. falciparum GB4 in erythrocytes, SYBR Green DNA, 72 h; series mostly up to 6.7 µM
Summary of the method: (§1)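 Parasite growth measured as SYBR Green DNA fluorescence (ex 485, em 535 nm) after overnight lysis following 72 h culture at 37 °C, 0.3% parasitemia, 2.5% hematocrit. Values normalized against DMSO and 0.29 uM artemisinin controls, with plate-stack correction.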
Potency is read from the fitted curve at half-maximal effect; tags tell the direction and shape of the fitted curve.

Potency, inactive:
COC(=O)CCC(=O)OC1(C)C(=O)C=C2C=C(C3CC3)N(C3CCCC3)C=C2C1=O (stereo not given), COC(=O)c1ccc(CN2C(=O)[C@]3(O[C@H](C)CC4=CCCC43)c3c(Br)cccc32)cc1 (stereo not given in full), COC(=O)CCCC1=CC2=CC(=O)C(C)(OC(=O)c3cccs3)C(=O)C2=CN1Cc1ccccc1 (stereo not given), COc1ccc(C2=CC3=C(Br)C(=O)C(C)(O)C(=O)C3=CO2)cc1 (stereo not given), CC(C)C(=O)N[C@H]1CCCN1C(=O)C=Cc1ccccc1, Cn1c(-c2ccccc2)c(O)c(=O)c2ccccc21, COC(=O)N1C(c2ccccc2)=Cc2ccccc2C1C1(C(=O)OC)CCCC1=O (stereo not given)

Potency, inconclusive:
CC(C)=CCCC(C)=CCON=C1C[C@@H](O)[C@@H](O)[C@@H]2[C@H]3C(=O)N(C[C@@H]4CCCO4)C(=O)[C@@H]3CC[C@@H]12 0.0017 µM [inhibitor, full curve, poor fit], COCCN1C=C2C(=O)C(C)(OC(=O)CCc3ccccc3)C(=O)C=C2C=C1c1ccc(C#N)cc1 (stereo not given) 0.0005 µM [activator], CC(=O)OC[C@H]1O[C@H](CC=NO[C@H](C)c2cn([C@H](CO)Cc3ccccc3)nn2)C=C[C@@H]1OC(C)=O 4.26 µM [inhibitor, single point]

Experiment: qHTS for Inhibitors of Plasmodium falciparum (CP250) proliferation (AID 504320)
Details: P. falciparum CP250 in erythrocytes, SYBR Green DNA, 72 h; series mostly up to 6.7 µM
Summary of the method: as §1

Potency, inconclusive:
C=CCN=C1NC(CCc2ccccc2)C(C(=O)OC)=C(C)N1CC (stereo not given) 1.9 µM [inhibitor, partial curve, poor fit], CC(C)CON=C1C[C@@H](O)[C@@H](O)[C@@H]2[C@H]3C(=O)N(C[C@@H]4CCCO4)C(=O)[C@@H]3CC[C@H]12 3.38 µM [inhibitor, single point], COc1ccc(COC(=O)NN=C2C[C@@H](O)[C@@H](O)[C@@H]3[C@H]4C(=O)N(Cc5ccc6c(c5)OCO6)C(=O)[C@@H]4CC[C@H]23)cc1 1.69 µM [inhibitor, partial curve, poor fit]

Potency, inactive:
COc1ccc(O[C@H]2C=C[C@@H](c3ccccc3)O[C@H]2COC(=O)CCC(C)=NO[C@@H]2O[C@H](COC(C)=O)[C@@H](OC(C)=O)[C@H](OC(C)=O)[C@@H]2OC(C)=O)cc1, CC1=CC[C@@H](C)O[C@@]2(C1)C(=O)Nc1ccccc12
